Test results: patent publication US5914339A, “Substituted 1,3-benzodioxoles” (American Home Products Corporation, priority 1997, dated 1999)
The name of at least one read-out is uncertain.

System: plasma free fatty acids
Test: Effects on plasma free fatty acid levels in rats
Type: in vivo, rat
Details: 0.1 mg/kg, gavage, blood collected 50 min later
Experimental: Rats respond to a single oral dose of β3 agonists by increasing plasma free fatty acids (FFA) in response to β3 receptor stimulation on the plasma membrane of the fat cell. 5-{2-[2-(3-Chloro-phenyl)-2-hydroxy-ethylamino]-propyl}-benzo[1,3]dioxole- 2,2-dicarboxylic acid diisopropyl ester (Standard 2) was used as a standard compound. All test compounds were dosed at 0.1 mg/kg and compared to the response by Standard 2.
1). Drugs were dissolved in DMSO at 10 mg/ml.
2). Twenty μl of the DMSO-drug solution was added to 10 mL methyl cellulose:tween-80 (0.5%:0.1%) for a final concentration of 20 μg/mL.
3). Methyl cellulose:tween-80 drug suspension was given via gavage (1 mL/200 g body weight; or 0.1 mg/kg) to rats and blood was collected 50 min later.
4). Plasma was analyzed for free fatty acids using a kit supplied by Biochemical Diagnostics Inc. (Brentwood, N.Y.).
5). Drug response was calculated from the formula below. [formula]
^b Elevation of plasma free fatty acids in rats, compounds tested at
0.1 mg/kg, results expressed as % of
5{2[2(3-Chloro-phenyl)-2-hydroxy-ethylaminopropylbenzo[1,3dioxole-2,2-dic
rboxylic acid diisopropyl ester response (78% increase) at 0.1 mg/kg.
ED50 (mg/kg) values determined for selected compounds.

| SMILES | Rat Free Fatty Acid: elevation of plasma free fatty acids, % of diisopropyl ester (Standard 2) response [%] |
| --- | --- |
| CC(Cc1ccc2c(c1)OC(C(=O)OC(C)OC(=O)C(C)(C)C)(C(=O)OC(C)OC(=O)C(C)(C)C)O2)NCC(O)c1cccc(Cl)c1 (stereo not drawn) [Example 52] | 23 |
| C[C@H](Cc1ccc2c(c1)OC(C(=O)OCC(C)(C)CO)(C(=O)OCC(C)(C)CO)O2)NC[C@H](O)c1cccc(Cl)c1 [Example 94, 5-{(2R)-2-[(2R)-2-(3-Chloro-phenyl)-2-hydroxy-ethylamino]-propyl}-benzo[1,3]dioxole-2,2-dicarboxylic aicd bis-(3-hydroxy-2,2-dimethyl-propyl) ester] | 78 |
| CC(OC(=O)OC1CCCCC1)OC(=O)C1(C(=O)OC(C)OC(=O)OC2CCCCC2)Oc2ccc(C[C@@H](C)NC[C@H](O)c3cccc(Cl)c3)cc2O1 (stereo partly drawn) [Example 59, 5-{(2R)-2-[(2R)-2-(3-Chloro-phenyl)-2-hydroxy-ethylamino]-propyl}-benzo[1,3]dioxole-2,2-dicarboxylic acid bis-[1-(cyclohexyloxycarbonyloxy)-ethyl] ester] | 17 |
| C[C@H](Cc1ccc2c(c1)OC(C(=O)OCCCOCc1ccccc1)(C(=O)OCCCOCc1ccccc1)O2)NC[C@H](O)c1cccc(Cl)c1 [Example 104, 5-{(2R)-2-[(2R)-2-(3-Chloro-phenyl)-2-hydroxy-ethylamino]-propyl}benzo[1,3]dioxole-2,2-dicarboxylic acid bis-(3-benzyloxy-propyl)ester] | 83 |
| CC(Cc1ccc2c(c1)OC(C(=O)OCCC1CCCCC1)(C(=O)OCCC1CCCCC1)O2)NCC(O)c1cccc(Cl)c1 (stereo not drawn) [Example 36, 5-{2-[2-(3-Chloro-phenyl)-2-hydroxy-ethylamino]-propyl}-benzo[1,3]dioxole-2,2-dicarboxylic acid bis-(2-cyclohexyl-ethyl) ester] | 37 |
| CC(C)CCCOC(=O)C1(C(=O)OCCCC(C)C)Oc2ccc(CC(C)NCC(O)c3cccc(Cl)c3)cc2O1 (stereo not drawn) [Example 35, 5-{2-[2-(3-Chloro-phenyl)-2-hydroxy-ethylamino]-propyl}-benzo[1,3]dioxole-2,2-dicarboxylic acid bis-(4-methyl-pentyl) ester] | 69 |
| CCOCCOC(=O)C1(C(=O)O)Oc2ccc(C[C@@H](C)NC[C@H](O)c3cccc(Cl)c3)cc2O1 (stereo partly drawn) [Example 95, 5-{(2R)-2-[(2R)-2-(3-Chloro-phenyl)-2-hydroxy-ethylamino]-propyl}-benzo[1,3]dioxole-2,2-dicarboxylic acid (2-ethoxy-ethyl) ester] | 73 |
| CC(Cc1ccc2c(c1)OC(C(=O)OC(C)OC(=O)CC(C)(C)C)(C(=O)OC(C)OC(=O)CC(C)(C)C)O2)NCC(O)c1cccc(Cl)c1 (stereo not drawn) [Example 54] | 24 |
| C=CCOC(=O)C1(C(=O)OCC=C)Oc2ccc(C[C@@H](C)NC[C@H](O)c3cccc(Cl)c3)cc2O1 [Example 98, 5-{(2R)-2-[(2R)-2-(3-Chloro-phenyl)-2-hydroxy-ethylamino]-propyl}-benzo[1,3]dioxole-2,2-dicarboxylic acid diallyl ester] | 86 |
| CCC(=O)OC(C)OC(=O)C1(C(=O)OC(C)OC(=O)CC)Oc2ccc(CC(C)NCC(O)c3cccc(Cl)c3)cc2O1 (stereo not drawn) [Example 51, 5-{2-[2-(3-Chloro-phenyl)-2-hydroxyethylamino]propyl}benzo[1,3] dioxole-2,2-dicarboxylic acid bis-(1-propionyloxy-ethyl) ester] | 2 |
| CCCCCCOC(=O)C1(C(=O)OCCCCCC)Oc2ccc(CC(C)NCC(O)c3cccc(Cl)c3)cc2O1 (stereo not drawn) [Example 14, 5-{2-[2-(3-Chloro-phenyl)-2-hydroxy-ethylamino]-propyl}-benzo[1,3]dioxole-2,2-dicarboxylic acid dihexyl ester] | 65 |
| C[C@H](Cc1ccc2c(c1)OC(C(=O)OCCc1cccc(Br)c1)(C(=O)OCCc1cccc(Br)c1)O2)NC[C@H](O)c1cccc(Cl)c1.Cl [Example 96, 5-{(2R)-2-[(2R)-2-(3-Chloro-phenyl)-2-hydroxy-ethylamino]-propyl}-benzo[1,3]dioxole-2,2-dicarboxylic acid bis-[2-(3-bromo-phenyl)-ethyl]ester hydrochloride salt] | 71 |
| CCOC(=O)COC(=O)C1(C(=O)OCC(=O)OCC)Oc2ccc(CC(C)NCC(O)c3cccc(Cl)c3)cc2O1 (stereo not drawn) [Example 28, 5-{2-[2-(3-Chloro-phenyl)-2-hydroxy-ethylamino]-propyl}-benzo[1,3]dioxole-2,2-dicarboxylic acid bis-ethoxycarbonylmethyl ester] | 22 |
| C[C@H](Cc1ccc2c(c1)OC(C(=O)O)(C(=O)OCC13CC4CC(CC(C4)C1)C3)O2)NC[C@H](O)c1cccc(Cl)c1 (stereo partly drawn) [Example 79, 5-{(2R)-2-[(2R)-2-(3-Chloro-phenyl)-2-hydroxy-ethylamino]-propyl}-benzo[1,3]dioxole-2,2-dicarboxylic acid adamantan-1-ylmethyl ester] | 61 |
| CCOCCOC(=O)C1(C(=O)OCCOCC)Oc2ccc(CC(C)NCC(O)c3cccc(Cl)c3)cc2O1.Cl (stereo not drawn) [Example 5, 5-{2-[2-(3-Chloro-phenyl)-2-hydroxy-ethylamino]-propyl}-benzo[1,3]dioxole-2,2-dicarboxylic acid bis-(2-ethoxy-ethyl) ester hydrochloride salt] | 115 |
| CC(Cc1ccc2c(c1)OC(C(=O)OCOC(=O)CC(C)(C)C)(C(=O)OCOC(=O)CC(C)(C)C)O2)NCC(O)c1cccc(Cl)c1 (stereo not drawn) [Example 53, 5-{2-[2-(3-Chloro-phenyl)-2-hydroxyethylamino]propyl}benzo[1,3] dioxole-2,2-dicarboxylic acid bis-(3,3-dimethyl-butyryloxymethyl) ester] | 20 |
| C[C@H](Cc1ccc2c(c1)OC(C(=O)OCC(C)(C)C1CCCCC1)(C(=O)OCC(C)(C)C1CCCCC1)O2)NC[C@H](O)c1cccc(Cl)c1 [Example 83, 5-{(2R)-2-[(2R)-2-(3-Chloro-phenyl)-2-hydroxy-ethylamino]-propyl}-benzo[1,3]dioxole-2,2-dicarboxylic aicd bis-(2-cyclohexyl-2-methyl-propyl) ester] | 13 |
| CCCCCCC(=O)OCOC(=O)C1(C(=O)OCOC(=O)CCCCCC)Oc2ccc(CC(C)NCC(O)c3cccc(Cl)c3)cc2O1 (stereo not drawn) [Example 46, 5-{2-[2-(3-Chloro-phenyl)-2-hydroxyethylamino]propyl}benzo[1,3] dioxole-2,2-dicarboxylic acid bis-heptanoyloxymethyl ester] | 23 |
| C[C@H](Cc1ccc2c(c1)OC(C(=O)OCC1CCCO1)(C(=O)OCC1CCCO1)O2)NC[C@H](O)c1cccc(Cl)c1 (stereo partly drawn) [Example 91, 5-{(2R)-2-[(2R)-2-(3-Chloro-phenyl)-2-hydroxy-ethylamino]-propyl}-benzo[1,3]dioxole-2,2-dicarboxylic aicd bis-(tetrahydro-furan-2-ylmethyl) ester] | 27 |
| CC(Cc1ccc2c(c1)OC(C(=O)OCCOc1ccccc1)(C(=O)OCCOc1ccccc1)O2)NCC(O)c1cccc(Cl)c1.Cl (stereo not drawn) [Example 4, 5-{2-[2-(3-Chloro-phenyl)-2-hydroxy-ethylamino]-propyl}-benzo[1,3]dioxole-2,2-dicarboxylic acid bis-(2-phenoxy-ethyl) ester hydrochloride salt] | 2 |
| C[C@H](Cc1ccc2c(c1)OC(C(=O)OCC1CCOC1)(C(=O)OCC1CCOC1)O2)NC[C@H](O)c1cccc(Cl)c1 (stereo partly drawn) [Example 87, 5-{(2R)-2-[(2R)-2-(3-Chloro-phenyl)-2-hydroxy-ethylamino]-propyl}-benzo[1,3]dioxole-2,2-dicarboxylic aicd bis-(tetrahydro-furan-3-ylmethyl) ester] | 68 |
| CCC(CC)COC(=O)C1(C(=O)OCC(CC)CC)Oc2ccc(C[C@@H](C)NC[C@H](O)c3cccc(Cl)c3)cc2O1 [Example 74, 5-{(2R)-2-[(2R)-2-(3-Chloro-phenyl)-2-hydroxy-ethylamino]-propyl}-benzo[1,3]dioxole-2,2-dicarboxylic acid bis-(2-ethylbutyl) ester] | 86 |
| CC(C)CC(C)(C)COC(=O)C1(C(=O)OCC(C)(C)CC(C)C)Oc2ccc(C[C@@H](C)NC[C@H](O)c3cccc(Cl)c3)cc2O1 [Example 85, 5-{(2R)-2-[(2R)-2-(3-Chloro-phenyl)-2-hydroxy-ethylamino]-propyl}-benzo[1,3]dioxole-2,2-dicarboxylic aicd bis-(2,2,4-trimethyl-pentyl) ester] | 60 |
| CCCCCCCCCCOC(=O)C1(C(=O)OCCCCCCCCCC)Oc2ccc(CC(C)NCC(O)c3cccc(Cl)c3)cc2O1 (stereo not drawn) [Example 19, 5-{2-[2-(3-Chloro-phenyl)-2-hydroxy-ethylamino]-propyl}-benzo[1,3]dioxole-2,2-dicarboxylic acid bis-decyl ester] | 36 |
